# Data as given in PubChem BioAssay AID624202 (National Center for Advancing Translational Sciences (NCATS), 2012).
# In all, about 380,000 compounds went through this assay and about 4,000 (1.1%) were called active. The inconclusive results got no clear call from the source; some entries with a clear call stand among them for comparison. The call rests on the fitted dose curve; in most records, active means well fitted activation curve with a large enough effect; inconclusive means small, poorly fitted or top-dose-only effect; inactive means no such curve, though single readings can be large or run the other way. Where the call is inconclusive, the potency comes from a doubtful curve fit.
# Assay: qHTS Assay to Identify Small Molecule Activators of BRCA1 Expression; further: nearly all actives have a fitted effect of over 80% in size
# Conditions: MCF7-BRCA1-FFLuc reporter, luminescence, 48 h; activation: at 46.1 µM (top of the series), scaled: vehicle 0%, 10 µM genistein 100% unless noted
# Summary of the method: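 48 h compound treatment of MCF7-BRCA1-FFLuc cells (phenol-red free MEM, 37 °C), then 15 min with luciferase substrate and luminescence imaging.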
# Potency means the concentration at half of the fitted maximal effect; tags describe the fitted curve by direction and shape.
Structure (SMILES),Potency,activation
O=C(NCCCN1CCCC1=O)C(=O)Nc1cccc(F)c1,"inconclusive: 1.58 µM [activator, full curve, poor fit]",
O=C(NC(=S)Nc1ccc2c(c1)OCO2)c1ccc(Cl)cc1,active: 6.31 µM,
Cc1ccc(/C=N/NC(=O)c2ccc3c(c2)OCCO3)s1,active: 2.51 µM,
Cc1ccc(OCCn2cc(/C=C(\C#N)C(=O)NCC3CCCO3)c3ccccc32)cc1 (stereo not given),,inactive: -28.9%
CCN1CCN(c2ncnc3c2cnn3-c2ccccc2)CC1,"inconclusive: 12.6 µM [activator, partial curve, poor fit]",
COc1ccc(NC(=O)CCC(=O)OCc2ccc([N+](=O)[O-])cc2)cc1,,inactive: 24.7%
Cn1c(NC(=O)c2ccc(S(=O)(=O)N3CCOCC3)cc2)cc(=O)n(C)c1=O,"inconclusive: 15.8 µM [activator, single point]",
Cc1cccc(C)c1NC(=S)N=Nc1c(O)n(C)c2ccc(S(=O)(=O)N3CCOCC3)cc12,,inactive: -36.8%
COc1cc(CNn2cn[nH]c2=S)cc(Cl)c1OCc1ccccc1,,inactive: -8.3%
Cc1ccc(C(=O)Nc2scc(-c3ccccc3)c2C(=O)O)cc1,,inconclusive: 35% [activator]
CC(C)(C)C(=O)N1CCN(c2nc3ccc(Br)cc3s2)CC1,"inconclusive: 7.94 µM [activator, partial curve, poor fit]",
Clc1ccc(N/N=C/c2ccncc2)cc1Cl,active: 7.08 µM,
O=C(Nc1sc(-c2ccccc2)cc1C(=O)O)c1ccccc1,active: 11.2 µM,
O=C(Nc1ccccc1)N1CCc2ccccc21,"inconclusive: 2.51 µM [activator, full curve, poor fit]",
COc1ccc(C(=O)COC(=O)c2n[nH]c3ccccc23)c(OC)c1,"inconclusive: 14.1 µM [activator, partial curve, poor fit]",
CCC(=O)Nc1cccc(-c2cnc3ccccc3n2)c1,"inconclusive: 8.91 µM [activator, partial curve, poor fit]",
COc1cccc(NC(=O)C2CCN(S(=O)(=O)c3ccc4c(c3)NC(=O)CO4)CC2)c1,,inactive: -16.6%
Cc1ccc(C(=O)Nc2nc3ccc(S(C)(=O)=O)cc3s2)s1,"inconclusive: 2.24 µM [activator, full curve, poor fit]",
COc1cc(OC)c(NC(=O)CSc2nccn2C)cc1Cl,,inactive: -40.8%
CSC1=N/C(=C\c2ccc(Cl)cc2)C(=O)N1N(C)C,,inactive: -36.7%
O=C1CCCC2=C1C(c1ccc(O)c(O)c1)Nc1ccc3ccccc3c12 (stereo not given),,inactive: -35.9%
Cc1csc(NC(=O)CSc2nc3[nH]c(=O)cc(O)c3s2)n1,,inactive: -4.82%
COc1cccc(-c2nc3nc(C)cc(C)n3c2Nc2c(C)cccc2C)c1,,inactive: -8.22%
O=C(c1cccc([N+](=O)[O-])c1)n1nc(-c2ccccc2)nc1NCc1ccccc1,active: 10 µM,
COc1cnc(-c2ccccn2)nc1Sc1ccc(Cl)cc1,,inactive: 3.84%

Structure (SMILES),Potency,activation
CCCCOC(=O)Nc1ccc(C)c(Cl)c1,"inconclusive: 14.1 µM [activator, partial curve, poor fit]",
Cc1ccc(N=Cc2c(O)[nH]c3ccccc23)c([N+](=O)[O-])c1,"inconclusive: 1.12 µM [activator, full curve, poor fit]",
CCC(=O)Nc1ccc(C(=O)Nc2cccc(OC)c2)cc1,active: 12.6 µM,
Cc1nc(N2CCN(Cc3ccc4c(c3)OCO4)CC2)c2oc3ccccc3c2n1,,inactive: -75.3%
Cc1nc2ccccc2n1CCc1nc2c3ccccc3nc(SCC(=O)NCc3ccco3)n2n1,,inactive: -0.55%
Cc1cccc(NC(=O)Cc2cccs2)n1,"inconclusive: 12.6 µM [activator, partial curve, poor fit]",
CC(C)(C)Cc1nnc(NC(=O)c2ccc([N+](=O)[O-])cc2)s1,active: 5.62 µM,
N#CCC(=O)N/N=C\c1ccc(OC/C=C/c2ccccc2)cc1,active: 5.01 µM,
CC(OC(=O)c1ccc2c(c1)OCCO2)C(=O)c1ccccc1 (stereo not given),"inconclusive: 1.58 µM [activator, full curve, poor fit]",
O=C(CSc1ncc(-c2ccc(F)cc2)n1Cc1ccco1)Nc1ccc2c(c1)OCO2,"inconclusive: 12.6 µM [activator, partial curve, poor fit]",
O=C1c2ccccc2CN1c1ccccc1,active: 6.31 µM,
CCCC(=O)Nc1ccc(C(=O)COC(=O)C2CC2C)cc1 (stereo not given),active: 11.2 µM,
Cc1ccc(-c2nc(-c3ccncc3)no2)c(Cl)c1,"inconclusive: 1.26 µM [activator, partial curve, poor fit]",
COc1ccc2cc(N3CCCC3=O)ccc2c1,"inconclusive: 11.2 µM [activator, partial curve, poor fit]",
Cc1nc2ccc(NC(=O)c3cccs3)cc2s1,active: 6.31 µM,
O=C(O)CN1C(=O)/C(=C\c2cccc(OCc3ccc(Cl)cc3)c2)SC1=S,"inconclusive: 20 µM [activator, partial curve, poor fit]",
CC(Cc1cccs1)NC(=O)NC1CCCCC1 (stereo not given),"inconclusive: 14.1 µM [activator, partial curve, poor fit]",
CCCCC(=O)/C=C/n1c(=S)oc2ccccc21,,inactive: -61.4%
CCN(CC)C(=O)c1cc2c(=O)c3cc(Cl)ccc3oc2nc1C,"inconclusive: 20 µM [activator, single point]",
Cc1ccc(C)c(N2CCN(C3CCCCC3NS(=O)(=O)c3ccccc3)CC2)c1 (stereo not given),,inactive: -36.2%
Cc1ccc(NC(=S)Nc2ccc3cn[nH]c3c2)cc1,"inconclusive: 35.5 µM [activator, single point]",
N#CC(c1ccc(N)cc1)C(CC(=O)c1ccccc1)c1ccccc1 (stereo not given),,inactive: 7.8%
Cc1ccc2nc(-c3ccc(O)cc3)c(Nc3ccc4c(c3)OCCO4)n2c1,,inactive: -1.87%
CS(=O)(=O)N1CCCCC1c1cc(C(=O)Nc2ccc3c(c2)OCO3)no1 (stereo not given),"inconclusive: 17.8 µM [activator, single point]",
COCCNC(=O)C(=O)Nc1cccc(Br)c1,"inconclusive: 12.6 µM [activator, partial curve, poor fit]",
